In publication PMC6029351:
Results are given in words; binding and its absence hold for the method and conditions named. In cells and extracts the contact can be indirect. Some binding calls cover weakened binding; strength is not graded here.

The chains behind the UniProt entries cited, without tags or fusion partners. Where a name states a change or a piece, a line headed by the entry shows the natural chain unless it says otherwise. A line that says so, or that is headed by a name, gives the form on record, which may keep a tag or linker.
NLS-Nm23-H1 (Nm23-H1 with nuclear located sequence) (P15531, form named): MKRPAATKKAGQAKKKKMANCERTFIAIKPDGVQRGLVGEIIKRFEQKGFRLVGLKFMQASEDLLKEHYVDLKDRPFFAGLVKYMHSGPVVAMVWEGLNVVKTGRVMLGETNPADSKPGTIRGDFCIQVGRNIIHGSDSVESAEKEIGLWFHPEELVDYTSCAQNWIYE
UniProt P13010: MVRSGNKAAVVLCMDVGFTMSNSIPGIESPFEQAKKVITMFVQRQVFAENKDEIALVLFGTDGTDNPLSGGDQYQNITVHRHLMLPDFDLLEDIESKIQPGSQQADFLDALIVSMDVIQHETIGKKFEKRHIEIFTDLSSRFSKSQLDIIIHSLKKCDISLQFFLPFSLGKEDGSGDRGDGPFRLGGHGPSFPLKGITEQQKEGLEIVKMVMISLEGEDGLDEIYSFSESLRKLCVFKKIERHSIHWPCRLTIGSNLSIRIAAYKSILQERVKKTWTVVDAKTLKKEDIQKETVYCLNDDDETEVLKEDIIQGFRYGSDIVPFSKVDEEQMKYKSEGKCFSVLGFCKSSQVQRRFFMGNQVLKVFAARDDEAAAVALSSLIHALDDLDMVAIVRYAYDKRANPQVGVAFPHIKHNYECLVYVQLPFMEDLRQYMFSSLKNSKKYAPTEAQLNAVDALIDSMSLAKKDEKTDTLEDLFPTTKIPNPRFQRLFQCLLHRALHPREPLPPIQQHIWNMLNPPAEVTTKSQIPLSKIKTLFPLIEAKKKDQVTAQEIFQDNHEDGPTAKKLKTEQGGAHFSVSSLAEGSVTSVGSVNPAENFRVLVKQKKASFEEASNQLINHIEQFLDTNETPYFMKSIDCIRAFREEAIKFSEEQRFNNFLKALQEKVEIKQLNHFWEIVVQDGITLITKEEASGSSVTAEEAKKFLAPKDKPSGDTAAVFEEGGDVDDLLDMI
UniProt Q92878: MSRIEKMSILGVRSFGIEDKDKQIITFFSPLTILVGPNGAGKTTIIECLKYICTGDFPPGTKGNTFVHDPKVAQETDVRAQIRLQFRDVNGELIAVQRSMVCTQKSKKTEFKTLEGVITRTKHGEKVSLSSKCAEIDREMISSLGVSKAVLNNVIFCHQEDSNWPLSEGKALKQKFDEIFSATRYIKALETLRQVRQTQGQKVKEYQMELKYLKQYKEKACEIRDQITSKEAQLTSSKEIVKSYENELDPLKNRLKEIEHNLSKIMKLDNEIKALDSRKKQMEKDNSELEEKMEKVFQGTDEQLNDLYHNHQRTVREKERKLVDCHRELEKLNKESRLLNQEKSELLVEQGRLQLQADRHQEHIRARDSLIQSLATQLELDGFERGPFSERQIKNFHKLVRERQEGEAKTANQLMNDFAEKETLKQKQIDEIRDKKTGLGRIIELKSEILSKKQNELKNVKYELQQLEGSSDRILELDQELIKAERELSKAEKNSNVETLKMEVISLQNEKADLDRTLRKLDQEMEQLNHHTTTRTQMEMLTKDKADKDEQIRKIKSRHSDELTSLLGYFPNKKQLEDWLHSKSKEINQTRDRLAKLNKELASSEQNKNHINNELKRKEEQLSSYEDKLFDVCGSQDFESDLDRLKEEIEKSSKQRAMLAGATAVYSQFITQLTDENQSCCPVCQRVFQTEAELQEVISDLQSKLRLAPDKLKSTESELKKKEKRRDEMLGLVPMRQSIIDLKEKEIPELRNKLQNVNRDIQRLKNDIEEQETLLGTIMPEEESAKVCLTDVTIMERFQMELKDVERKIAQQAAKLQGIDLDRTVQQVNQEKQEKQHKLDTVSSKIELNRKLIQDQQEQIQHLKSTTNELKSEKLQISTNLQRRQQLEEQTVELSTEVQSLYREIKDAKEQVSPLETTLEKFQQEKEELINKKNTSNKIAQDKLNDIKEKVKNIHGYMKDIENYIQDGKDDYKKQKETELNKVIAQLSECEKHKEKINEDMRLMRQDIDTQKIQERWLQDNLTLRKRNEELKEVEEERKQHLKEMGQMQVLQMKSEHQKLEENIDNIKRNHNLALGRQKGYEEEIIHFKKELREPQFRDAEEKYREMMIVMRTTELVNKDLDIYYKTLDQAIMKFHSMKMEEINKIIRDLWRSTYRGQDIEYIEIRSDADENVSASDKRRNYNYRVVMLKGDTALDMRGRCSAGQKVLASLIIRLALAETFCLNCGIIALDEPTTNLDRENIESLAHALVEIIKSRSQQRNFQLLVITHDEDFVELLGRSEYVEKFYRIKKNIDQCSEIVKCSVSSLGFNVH
UniProt P78527: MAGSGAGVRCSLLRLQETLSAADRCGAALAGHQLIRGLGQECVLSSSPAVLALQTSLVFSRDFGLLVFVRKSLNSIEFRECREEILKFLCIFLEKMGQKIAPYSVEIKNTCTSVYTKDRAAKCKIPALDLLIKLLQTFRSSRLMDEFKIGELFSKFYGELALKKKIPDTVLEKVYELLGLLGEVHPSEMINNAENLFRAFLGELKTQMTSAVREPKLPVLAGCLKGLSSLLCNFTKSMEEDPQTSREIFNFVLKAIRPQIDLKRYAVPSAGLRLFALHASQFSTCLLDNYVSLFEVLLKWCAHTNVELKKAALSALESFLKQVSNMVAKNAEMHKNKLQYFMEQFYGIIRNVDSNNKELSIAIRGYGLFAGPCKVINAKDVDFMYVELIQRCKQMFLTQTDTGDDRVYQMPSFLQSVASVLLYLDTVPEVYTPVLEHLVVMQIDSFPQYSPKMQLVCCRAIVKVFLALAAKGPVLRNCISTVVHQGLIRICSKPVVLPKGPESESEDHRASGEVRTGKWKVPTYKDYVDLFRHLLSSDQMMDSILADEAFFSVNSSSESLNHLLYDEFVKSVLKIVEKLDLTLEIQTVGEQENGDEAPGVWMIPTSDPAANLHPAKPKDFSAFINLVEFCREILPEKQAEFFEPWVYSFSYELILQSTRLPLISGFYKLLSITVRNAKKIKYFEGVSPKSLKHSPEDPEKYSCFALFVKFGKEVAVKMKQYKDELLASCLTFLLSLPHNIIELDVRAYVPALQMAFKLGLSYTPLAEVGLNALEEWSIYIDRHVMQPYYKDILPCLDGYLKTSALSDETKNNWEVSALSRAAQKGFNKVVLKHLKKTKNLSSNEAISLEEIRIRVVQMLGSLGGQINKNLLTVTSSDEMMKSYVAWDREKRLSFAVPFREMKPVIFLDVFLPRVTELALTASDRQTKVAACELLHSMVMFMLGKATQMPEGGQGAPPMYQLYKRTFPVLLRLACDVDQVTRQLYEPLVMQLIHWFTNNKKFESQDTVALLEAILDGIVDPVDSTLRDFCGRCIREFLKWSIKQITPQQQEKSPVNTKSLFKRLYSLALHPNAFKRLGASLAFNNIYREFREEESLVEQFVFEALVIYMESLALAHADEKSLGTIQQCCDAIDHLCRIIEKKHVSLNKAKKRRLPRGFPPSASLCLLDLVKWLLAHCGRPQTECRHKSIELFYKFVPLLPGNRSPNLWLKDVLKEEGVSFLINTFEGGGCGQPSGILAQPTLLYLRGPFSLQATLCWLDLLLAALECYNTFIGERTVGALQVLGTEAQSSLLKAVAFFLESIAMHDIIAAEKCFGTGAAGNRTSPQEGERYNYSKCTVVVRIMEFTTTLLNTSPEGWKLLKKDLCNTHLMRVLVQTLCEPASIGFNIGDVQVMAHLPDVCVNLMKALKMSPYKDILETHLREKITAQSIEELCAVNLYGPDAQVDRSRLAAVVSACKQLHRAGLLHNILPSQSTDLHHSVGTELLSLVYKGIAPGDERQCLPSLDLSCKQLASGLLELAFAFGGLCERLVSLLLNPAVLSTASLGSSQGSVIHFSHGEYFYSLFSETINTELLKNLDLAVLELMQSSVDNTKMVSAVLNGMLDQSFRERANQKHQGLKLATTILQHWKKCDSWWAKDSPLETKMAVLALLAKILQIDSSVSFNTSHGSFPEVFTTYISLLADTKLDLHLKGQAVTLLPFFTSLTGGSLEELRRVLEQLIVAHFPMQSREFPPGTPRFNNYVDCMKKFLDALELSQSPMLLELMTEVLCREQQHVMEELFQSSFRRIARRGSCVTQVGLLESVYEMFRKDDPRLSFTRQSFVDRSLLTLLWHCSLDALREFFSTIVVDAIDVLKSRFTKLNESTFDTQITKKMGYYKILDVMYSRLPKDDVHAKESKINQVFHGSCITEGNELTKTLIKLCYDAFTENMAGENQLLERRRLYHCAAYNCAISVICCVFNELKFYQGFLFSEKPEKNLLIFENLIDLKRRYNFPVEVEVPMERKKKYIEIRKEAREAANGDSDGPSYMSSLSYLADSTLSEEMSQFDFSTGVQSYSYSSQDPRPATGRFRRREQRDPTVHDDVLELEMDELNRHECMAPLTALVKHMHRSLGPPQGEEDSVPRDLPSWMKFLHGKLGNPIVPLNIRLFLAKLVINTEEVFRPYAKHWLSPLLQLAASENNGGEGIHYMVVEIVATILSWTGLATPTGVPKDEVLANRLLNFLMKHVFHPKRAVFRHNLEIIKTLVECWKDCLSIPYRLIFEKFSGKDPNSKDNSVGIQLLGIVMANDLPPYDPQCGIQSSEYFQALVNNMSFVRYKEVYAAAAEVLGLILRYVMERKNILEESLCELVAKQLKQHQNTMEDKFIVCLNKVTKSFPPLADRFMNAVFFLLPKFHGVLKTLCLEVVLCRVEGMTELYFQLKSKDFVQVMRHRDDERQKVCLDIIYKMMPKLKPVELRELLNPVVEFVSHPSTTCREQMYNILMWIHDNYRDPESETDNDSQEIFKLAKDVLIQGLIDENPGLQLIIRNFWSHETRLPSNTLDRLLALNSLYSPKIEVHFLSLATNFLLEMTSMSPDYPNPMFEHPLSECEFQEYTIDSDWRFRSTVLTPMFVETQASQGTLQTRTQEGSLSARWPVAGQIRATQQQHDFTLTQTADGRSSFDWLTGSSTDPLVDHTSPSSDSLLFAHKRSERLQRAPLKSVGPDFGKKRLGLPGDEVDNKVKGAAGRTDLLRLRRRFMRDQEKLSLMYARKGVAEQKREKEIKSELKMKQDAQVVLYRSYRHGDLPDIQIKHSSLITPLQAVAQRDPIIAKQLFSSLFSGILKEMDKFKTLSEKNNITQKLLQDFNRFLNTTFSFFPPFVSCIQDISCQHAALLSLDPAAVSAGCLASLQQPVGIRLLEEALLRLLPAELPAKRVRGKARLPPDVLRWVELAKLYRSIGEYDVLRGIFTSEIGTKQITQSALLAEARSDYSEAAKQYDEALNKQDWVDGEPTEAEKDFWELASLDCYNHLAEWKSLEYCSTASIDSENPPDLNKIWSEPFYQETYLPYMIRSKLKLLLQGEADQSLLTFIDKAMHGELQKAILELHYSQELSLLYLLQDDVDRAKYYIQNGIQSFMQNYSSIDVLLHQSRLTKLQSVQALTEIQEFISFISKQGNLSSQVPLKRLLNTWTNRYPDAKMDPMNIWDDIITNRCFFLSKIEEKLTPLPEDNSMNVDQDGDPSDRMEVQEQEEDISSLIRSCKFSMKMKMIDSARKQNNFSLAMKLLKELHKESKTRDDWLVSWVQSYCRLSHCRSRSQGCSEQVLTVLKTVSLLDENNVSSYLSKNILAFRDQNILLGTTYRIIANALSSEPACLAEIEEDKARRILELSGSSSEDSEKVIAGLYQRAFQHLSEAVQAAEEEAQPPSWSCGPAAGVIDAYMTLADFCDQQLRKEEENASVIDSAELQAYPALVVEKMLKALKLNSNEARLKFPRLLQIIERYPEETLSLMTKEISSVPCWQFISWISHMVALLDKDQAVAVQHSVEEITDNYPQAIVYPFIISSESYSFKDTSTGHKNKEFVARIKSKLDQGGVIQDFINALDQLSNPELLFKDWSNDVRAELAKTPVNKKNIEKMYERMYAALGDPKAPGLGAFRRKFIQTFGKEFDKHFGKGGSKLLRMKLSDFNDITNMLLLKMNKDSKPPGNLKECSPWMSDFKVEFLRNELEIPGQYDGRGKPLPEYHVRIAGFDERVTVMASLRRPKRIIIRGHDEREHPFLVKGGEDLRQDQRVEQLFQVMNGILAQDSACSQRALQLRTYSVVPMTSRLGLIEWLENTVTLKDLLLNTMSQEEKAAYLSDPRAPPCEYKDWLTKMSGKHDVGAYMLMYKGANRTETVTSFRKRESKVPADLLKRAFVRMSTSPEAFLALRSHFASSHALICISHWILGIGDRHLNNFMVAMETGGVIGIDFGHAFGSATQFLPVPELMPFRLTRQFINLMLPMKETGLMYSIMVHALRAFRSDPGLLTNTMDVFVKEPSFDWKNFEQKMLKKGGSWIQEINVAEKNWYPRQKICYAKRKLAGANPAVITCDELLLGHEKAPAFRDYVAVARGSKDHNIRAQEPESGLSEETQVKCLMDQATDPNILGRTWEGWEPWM

Legend:
[1] = biological target: NLS-Nm23-H1 (Nm23-H1 with nuclear located sequence) (human) (UniProt P15531); assay: co-IP; A549-nNm23-H1 cells before irradiation (0 h); 200 ug cell protein with 5 ug anti-Nm23-H1 monoclonal antibody 12 h at 4 °C, protein G agarose 4 h at 4 °C; Western blot for NBS1, RAD50, MRE11, Ku80, DNA-PKcs; IgG as control
[2] = biological target: NLS-Nm23-H1 (Nm23-H1 with nuclear located sequence) (human) (UniProt P15531); assay: co-IP; A549-nNm23-H1 cells collected 8 h after 8 Gy X-rays; 200 ug cell protein with 5 ug anti-Nm23-H1 monoclonal antibody 12 h at 4 °C, protein G agarose 4 h at 4 °C; Western blot for NBS1, RAD50, MRE11, Ku80, DNA-PKcs; IgG as control

Row | binding [2] | Substance | binding [1]
1 | binds | X-ray repair cross-complementing 5 (XRCC5, also known as Ku80) (from UniProt P13010 1-732) | no binding (condition: before irradiation (0 h))
2 | binds | RAD50 (from UniProt Q92878 1-1312) | no binding (condition: before irradiation (0 h))
3 | no binding | catalytic polypeptide of DNA-activated protein kinase (PRKDC, also known as DNA-PKcs) (from UniProt P78527 1-4128) | no binding
4 | binds | NBS1 (from UniProt O60934 1-754) | no binding (condition: before irradiation (0 h))
